For part of its entries the source gives two or more results. The list is limited to them. The source may hold further records. Some entries list several cross-links; each record is another pair of residues.
Tests used:
Assay in all cases: cross-linking mass spectrometry
Details in all cases: DSSO, not determined
MORF4L1 = MORF4L1 (UniProt Q9UBU8)
HDAC2 = HDAC2 (UniProt Q92769)
PHF12 = PHF12 (UniProt Q96QT6)

HDAC2, Q92769, sequence (Q92769 whole entry): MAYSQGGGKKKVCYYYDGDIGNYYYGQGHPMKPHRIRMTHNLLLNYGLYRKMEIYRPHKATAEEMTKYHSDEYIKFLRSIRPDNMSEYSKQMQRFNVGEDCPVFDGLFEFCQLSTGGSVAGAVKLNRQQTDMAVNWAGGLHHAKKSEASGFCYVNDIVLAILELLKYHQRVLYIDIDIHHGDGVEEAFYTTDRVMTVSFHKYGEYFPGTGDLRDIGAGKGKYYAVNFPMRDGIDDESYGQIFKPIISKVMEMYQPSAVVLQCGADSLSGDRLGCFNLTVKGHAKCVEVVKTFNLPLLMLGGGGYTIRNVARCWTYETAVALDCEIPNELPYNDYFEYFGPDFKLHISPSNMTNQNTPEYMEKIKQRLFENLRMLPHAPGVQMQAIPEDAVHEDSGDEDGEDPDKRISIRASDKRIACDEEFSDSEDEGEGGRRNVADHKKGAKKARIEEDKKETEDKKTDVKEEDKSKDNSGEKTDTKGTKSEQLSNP
HDAC2, sequence (Q92769 whole entry): as above
UniProt Q9UBU8, sequence (Q9UBU8 whole entry): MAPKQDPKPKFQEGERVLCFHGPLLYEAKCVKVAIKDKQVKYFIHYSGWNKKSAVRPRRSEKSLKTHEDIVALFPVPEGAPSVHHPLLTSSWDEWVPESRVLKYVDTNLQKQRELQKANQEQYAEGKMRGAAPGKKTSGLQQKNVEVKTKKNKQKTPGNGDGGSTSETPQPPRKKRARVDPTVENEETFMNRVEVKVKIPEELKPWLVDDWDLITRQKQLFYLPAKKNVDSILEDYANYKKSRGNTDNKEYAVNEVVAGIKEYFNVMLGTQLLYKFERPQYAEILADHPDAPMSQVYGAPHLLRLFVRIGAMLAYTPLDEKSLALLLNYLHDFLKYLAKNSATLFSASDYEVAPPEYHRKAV
SIN3B, sequence (O75182 whole entry): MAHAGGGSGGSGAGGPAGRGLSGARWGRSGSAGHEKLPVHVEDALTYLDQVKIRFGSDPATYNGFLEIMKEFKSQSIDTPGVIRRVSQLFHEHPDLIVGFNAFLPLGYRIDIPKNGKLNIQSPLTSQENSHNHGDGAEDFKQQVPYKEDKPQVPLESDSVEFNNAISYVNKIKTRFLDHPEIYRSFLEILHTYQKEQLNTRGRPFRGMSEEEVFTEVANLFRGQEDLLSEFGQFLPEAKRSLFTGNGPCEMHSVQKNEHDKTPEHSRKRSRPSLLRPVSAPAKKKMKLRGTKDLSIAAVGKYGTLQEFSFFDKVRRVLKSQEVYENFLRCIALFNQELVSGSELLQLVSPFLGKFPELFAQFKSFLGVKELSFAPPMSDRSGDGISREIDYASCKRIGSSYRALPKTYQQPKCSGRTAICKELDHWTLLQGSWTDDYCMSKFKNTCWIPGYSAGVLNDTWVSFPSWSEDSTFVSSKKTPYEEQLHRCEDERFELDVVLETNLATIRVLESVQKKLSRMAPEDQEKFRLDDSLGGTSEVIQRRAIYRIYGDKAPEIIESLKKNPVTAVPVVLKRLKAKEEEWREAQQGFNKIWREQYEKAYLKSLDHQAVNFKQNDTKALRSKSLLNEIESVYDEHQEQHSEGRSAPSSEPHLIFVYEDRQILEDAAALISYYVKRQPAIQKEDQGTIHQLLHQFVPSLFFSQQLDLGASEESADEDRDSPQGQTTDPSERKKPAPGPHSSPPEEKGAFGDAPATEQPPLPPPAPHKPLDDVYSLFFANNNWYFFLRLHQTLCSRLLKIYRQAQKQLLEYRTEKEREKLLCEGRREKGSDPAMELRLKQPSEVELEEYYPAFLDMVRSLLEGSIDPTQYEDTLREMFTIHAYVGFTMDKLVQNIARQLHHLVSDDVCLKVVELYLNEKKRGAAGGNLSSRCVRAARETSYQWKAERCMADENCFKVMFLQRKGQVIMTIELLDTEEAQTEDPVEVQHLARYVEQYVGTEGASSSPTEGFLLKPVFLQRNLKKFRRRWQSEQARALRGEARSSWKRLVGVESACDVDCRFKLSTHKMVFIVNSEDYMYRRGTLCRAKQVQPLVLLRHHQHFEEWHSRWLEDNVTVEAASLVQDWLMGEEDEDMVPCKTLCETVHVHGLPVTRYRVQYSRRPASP
PHF12, Q96QT6, sequence (Q96QT6 whole entry): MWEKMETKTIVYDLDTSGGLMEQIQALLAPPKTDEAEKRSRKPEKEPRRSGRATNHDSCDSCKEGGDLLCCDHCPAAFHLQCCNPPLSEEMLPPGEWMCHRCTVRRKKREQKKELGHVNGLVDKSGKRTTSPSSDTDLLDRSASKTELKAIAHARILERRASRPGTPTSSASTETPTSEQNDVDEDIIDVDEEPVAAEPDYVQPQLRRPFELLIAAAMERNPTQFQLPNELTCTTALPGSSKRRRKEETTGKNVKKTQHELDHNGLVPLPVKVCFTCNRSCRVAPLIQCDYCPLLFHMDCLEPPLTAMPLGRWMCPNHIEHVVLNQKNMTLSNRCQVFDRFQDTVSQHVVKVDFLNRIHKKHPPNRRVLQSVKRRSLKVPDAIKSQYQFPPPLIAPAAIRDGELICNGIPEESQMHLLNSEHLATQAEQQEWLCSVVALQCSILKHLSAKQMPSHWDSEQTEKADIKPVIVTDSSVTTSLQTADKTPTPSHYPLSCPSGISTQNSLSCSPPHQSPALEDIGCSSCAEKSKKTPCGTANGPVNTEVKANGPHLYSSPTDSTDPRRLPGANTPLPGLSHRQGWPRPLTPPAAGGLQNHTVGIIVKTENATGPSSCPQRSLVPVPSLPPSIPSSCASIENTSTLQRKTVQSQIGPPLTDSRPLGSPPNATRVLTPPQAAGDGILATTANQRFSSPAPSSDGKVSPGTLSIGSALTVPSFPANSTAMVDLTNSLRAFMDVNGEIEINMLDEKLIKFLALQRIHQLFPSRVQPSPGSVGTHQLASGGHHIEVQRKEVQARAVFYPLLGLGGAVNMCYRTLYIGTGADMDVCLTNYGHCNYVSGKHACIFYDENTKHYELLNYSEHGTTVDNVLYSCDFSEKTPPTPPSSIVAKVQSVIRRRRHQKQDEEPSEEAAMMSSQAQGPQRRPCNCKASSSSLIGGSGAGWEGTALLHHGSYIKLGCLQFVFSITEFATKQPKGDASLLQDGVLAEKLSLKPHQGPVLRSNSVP
PHF12, sequence (Q96QT6 whole entry): as above

Substance | cross-linked residues (MORF4L1) | cross-linked residues (HDAC2) | cross-linked residues (PHF12)
PHF12, Q96QT6 | K4 - K111 and K4 - K218 and K38 - K29 and K38 - K111 and K38 - K127 and K38 - K143 and K38 - K218 and K38 - K249 and K42 - K111 and K42 - K117 and K42 - K136 and K45 - K111 and K45 - K117 and K45 - K136 and K113 - K136 and K113 - K143 and K124 - K111 and K124 - K117 and K124 - K135 and K145 - K10 and K145 - K29 and K145 - K32 and K145 - K111 and K145 - K127 and K145 - K135 and K145 - K136 and K145 - K143 and K145 - K148 and K145 - K240 and K145 - K249 and K149 - K111 and K149 - K117 and K149 - K135 and K149 - K143 and K149 - K148 and K149 - K218 and K149 - K249 and K242 - K103 and K242 - K111 and K242 - K117 and K242 - K127 and K242 - K143 and K242 - K155 and K242 - K196 and K242 - K204 and K242 - K218 and K246 - K10 and K246 - K29 and K246 - K111 and K246 - K117 and K246 - K143 and K246 - K198 and K246 - K204 and K246 - K218 and K246 - K339 and K252 - K111 and K252 - K117 and K252 - K127 and K252 - K143 and K252 - K148 and K252 - K204 and K252 - K249 and K256 - K8 and K256 - K111 and K256 - K143 and K256 - K249 and K351 - K103 and K351 - K111 and K351 - K117 and K351 - K127 and K351 - K135 and K351 - K136 and K351 - K143 and K373 - K29 and K373 - K111 and K373 - K117 and K373 - K127 and K373 - K135 and K373 - K143 and K373 - K148 and K373 - K204 and K373 - K339 and K378 - K111 and K378 - K117 and K378 - K127 and K378 - K136 and K378 - K198 and K378 - K204 and K378 - K226 and K378 - K240 and K378 - K339 and K467 - K249 | – | –
SIN3B, O75182 | K70 - K143 and K73 - K111 and K73 - K117 and K73 - K127 and K73 - K143 and K73 - K198 and K73 - K240 and K73 - K249 and K114 - K117 and K195 - K8 and K195 - K62 and K195 - K111 and K195 - K117 and K195 - K127 and K195 - K135 and K195 - K136 and K195 - K143 and K195 - K148 and K195 - K249 and K239 - K117 and K239 - K143 and K239 - K240 and K239 - K249 and K239 - K339 and K292 - K29 and K292 - K111 and K292 - K117 and K292 - K127 and K292 - K143 and K292 - K148 and K292 - K218 and K292 - K339 and K301 - K111 and K301 - K117 and K313 - K29 and K313 - K111 and K313 - K117 and K313 - K136 and K319 - K143 and K369 - K111 and K406 - K111 and K406 - K117 and K406 - K143 and K406 - K226 and K412 - K111 and K412 - K117 and K412 - K127 and K412 - K135 and K412 - K218 | K73 - K243 and K73 - K481 and K195 - K243 and K195 - K451 and K239 - K221 and K239 - K243 and K239 - K362 and K292 - K243 and K319 - K221 and K369 - K243 and K406 - K221 and K412 - K67 and K412 - K75 and K412 - K439 and K412 - K452 | K36 - K373 and K36 - K378 and K52 - K373 and K70 - K373 and K70 - K378 and K73 - K42 and K73 - K242 and K73 - K351 and K73 - K373 and K73 - K378 and K73 - K384 and K73 - K450 and K73 - K467 and K114 - K351 and K114 - K373 and K114 - K378 and K117 - K351 and K117 - K373 and K117 - K378 and K147 - K378 and K195 - K38 and K195 - K145 and K195 - K246 and K195 - K252 and K195 - K351 and K195 - K373 and K195 - K378 and K195 - K384 and K239 - K242 and K239 - K256 and K239 - K351 and K239 - K373 and K239 - K467 and K261 - K351 and K261 - K373 and K283 - K351 and K292 - K351 and K292 - K373 and K292 - K378 and K292 - K384 and K301 - K378 and K313 - K242 and K313 - K373 and K313 - K378 and K313 - K384 and K319 - K242 and K319 - K351 and K363 - K373 and K363 - K378 and K369 - K373 and K369 - K378 and K369 - K384 and K369 - K467 and K406 - K378 and K412 - K378
HDAC2, Q92769 | K75 - K117 and K75 - K127 and K75 - K136 and K75 - K143 and K75 - K218 and K221 - K117 and K243 - K8 and K243 - K143 and K284 - K111 and K284 - K127 and K439 - K143 and K439 - K148 and K439 - K249 and K451 - K111 and K451 - K136 and K451 - K249 and K452 - K111 and K474 - K111 and K474 - K148 and K481 - K117 and K481 - K249 | – | K75 - K45 and K75 - K378 and K221 - K373 and K221 - K378 and K243 - K242 and K439 - K373 and K439 - K378 and K462 - K373 and K468 - K373

Source: article PMC10156912
